target: human LRRK2(G2019S) kinase (Homo sapiens, UniProt Q5S007, G2019S); assay: biochemical
Method: Assay kits from Promega™ Corporation were used according to instructions and adapted as outlined herein. Test compounds were generally prepared with 1:3 serial dilutions for 12 concentrations (from 50 μM to 0.01 nM) ATP competition experiments. The kinase reaction was performed with kinase reaction buffer (40 mM Tris base pH 7.4, 20 mM MgCl2, 0.5 mM dithiothreitol), 0.1 mg/ml bovine serum albumin, distilled H2O). The reaction mixtures contained Pure ATP solution (10 μM), specific substrate (0.2 μg), and (human LRRK2 kinase (25 ng)) or (human LRRK2(G2019S) kinase (16 ng)), in a total assay volume of 5 μl after the manufacturer's protocol. In brief, the kinase reactions were started by addition of ATP to the kinase reaction mixture. The resulting mixture was incubated for 60 minutes at 25° C., and then stopped by adding 5 μl of ADP-Glo™ reagent. After incubation at room temperature in the dark for 40 minutes, 10 μl of kinase detection reagent was added per well, and the mixture was incubated for 10 minutes. Luminescence was measured using a Synergy™NEO2 plate reader (BioTek®) with an integration time of 1 second per well. Positive and negative controls were performed in 0.5% DMSO in the presence and absence of LRRK2 kinases. Curve fitting and data presentations were performed using GraphPad Prism version 5.0 (GraphPad Software, Inc.). The LRKK2 and LRRK2(G2019S) assay with inventive compounds 1-64 are summarized in the table below (Table 1), wherein: […]

Question: How did the IC50 turn out when CCCCNc1nc(Nc2ccc(S(C)(=O)=O)cc2OC)nc2[nH]cc(Cl)c12 [Compound 73, N4-butyl-5-chloro-N2-(2-methoxy-4-(methylsulfonyl)phenyl)-7H-pyrrolo[2,3-d]pyrimidine-2,4-diamine] was run?
Answer: 10 to 100 nM

Question: Which IC50 does the source give for CCCCNc1nc(Nc2ccc(C(=O)N3CCOCC3)c3c2OCCO3)nc2[nH]cc(Cl)c12 [Compound 74, (8-((4-(butylamino)-5-chloro-7H-pyrrolo[2,3-d]pyrimidin-2-yl)amino)-2,3-dihydrobenzo[b][1,4]dioxin-5-yl)(morpholino)methanone] here?
Answer: 10 to 100 nM

Question: With CNc1nc(Nc2ccc(C(=O)N3CCOCC3)c3c2OCC3)nc2[nH]cc(Cl)c12 [Compound 76, (7-((5-chloro-4-(methylamino)-7H-pyrrolo[2,3-d]pyrimidin-2-yl)amino)-2,3-dihydrobenzofuran-4-yl)(morpholino)methanone] as the compound, how does the IC50 read?
Answer: < 10 nM

Question: How did the IC50 turn out when COc1cc(P2(=O)CCN(C3CC3)CC2)ccc1Nc1nc(NC2CCCC2)c2c(Cl)c[nH]c2n1 [Compound 78, 4-(4-((5-chloro-4-(cyclopentylamino)-7H-pyrrolo[2,3-d]pyrimidin-2-yl)amino)-3-methoxyphenyl)-1-cyclopropyl-1,4-azaphosphinane 4-oxide] was run?
Answer: 10 to 100 nM

Question: Which IC50 does the source give for COc1cc(P2(=O)CCN(C3CCOCC3)CC2)ccc1Nc1nc(NC2CCCC2)c2c(Cl)c[nH]c2n1 [Compound 79] here?
Answer: 10 to 100 nM

Question: For O=C(c1ccc(Nc2nc(NC3CCCCC3)c3c(Cl)c[nH]c3n2)c2c1CCO2)N1CCC(N2CCOCC2)CC1 [Compound 80, (7-((5-chloro-4-(cyclohexylamino)-7H-pyrrolo[2,3-d]pyrimidin-2-yl)amino)-2,3-dihydrobenzofuran-4-yl)(4-morpholinopiperidin-1-yl)methanone], which IC50 is on record?
Answer: 10 to 100 nM

Question: For COc1cc(P2(=O)CCN(C3CCOCC3)CC2)ccc1Nc1nc(NC2CCCCC2)c2c(Cl)c[nH]c2n1 [Compound 81, 4-(4-((5-chloro-4-(cyclohexylamino)-7H-pyrrolo[2,3-d]pyrimidin-2-yl)amino)-3-methoxyphenyl)-1-(tetrahydro-2H-pyran-4-yl)-1,4-azaphosphinane 4-oxide], which IC50 is on record?
Answer: 10 to 100 nM

Question: How did the IC50 turn out when CNc1nc(Nc2ccc(P3(=O)CCN(C(C)=O)CC3)cc2OC)nc2[nH]cc(Cl)c12 [Compound 82, 1-(4-(4-((5-chloro-4-(methylamino)-7H-pyrrolo[2,3-d]pyrimidin-2-yl)amino)-3-methoxyphenyl)-4-oxido-1,4-azaphosphinan-1-yl)ethan-1-one] was run?
Answer: < 10 nM

Question: Which IC50 does the source give for O=C(c1ccc(Nc2nc(NC3CCCCC3)c3c(Cl)c[nH]c3n2)c2c1CCO2)N1CCOCC1 [Compound 83, (7-((5-chloro-4-(cyclohexylamino)-7H-pyrrolo[2,3-d]pyrimidin-2-yl)amino)-2,3-dihydrobenzofuran-4-yl)(morpholino)methanone] here?
Answer: 10 to 100 nM

Question: CCNc1nc(Nc2ccc(P3(=O)CCN(C4CC4)CC3)cc2OC)nc2[nH]cc(Cl)c12 [Compound 84, 4-(4-((5-chloro-4-(ethylamino)-7H-pyrrolo[2,3-d]pyrimidin-2-yl)amino)-3-methoxyphenyl)-1-cyclopropyl-1,4-azaphosphinane 4-oxide] was tested. Which IC50 did it give?
Answer: 10 to 100 nM

Question: With CNc1nc(Nc2ccc(P3(=O)CCN(C4CC4)CC3)cc2OC)nc2[nH]cc(Cl)c12 [Compound 85, 4-(4-((5-chloro-4-(methylamino)-7H-pyrrolo[2,3-d]pyrimidin-2-yl)amino)-3-methoxyphenyl)-1-cyclopropyl-1,4-azaphosphinane 4-oxide] as the compound, how does the IC50 read?
Answer: < 10 nM

Question: For CNc1nc(Nc2ccc(C(=O)N3CCC(N4CCOCC4)CC3)c3c2OCC3)nc2[nH]cc(Cl)c12 [Compound 86, (7-((5-chloro-4-(methylamino)-7H-pyrrolo[2,3-d]pyrimidin-2-yl)amino)-2,3-dihydrobenzofuran-4-yl)(4-morpholinopiperidin-1-yl)methanone], which IC50 is on record?
Answer: < 10 nM

Question: With COc1cc(S(=O)(=O)N2CCC(N3CCOCC3)CC2)ccc1Nc1nc(NC(C)C)c2c(Cl)c[nH]c2n1 [Compound 87, 5-chloro-N4-isopropyl-N2-(2-methoxy-4-((4-morpholinopiperidin-1-yl)sulfonyl)phenyl)-7H-pyrrolo[2,3-d]pyrimidine-2,4-diamine] as the compound, how does the IC50 read?
Answer: 10 to 100 nM

Question: For CC(C)Nc1nc(Nc2ccc(C(=O)N3CCC(N4CCOCC4)CC3)c3c2OCCO3)nc2[nH]cc(Cl)c12 [Compound 88], which IC50 is on record?
Answer: < 10 nM

Question: Which IC50 does the source give for COc1cc(P2(=O)CCN(C(C)=O)CC2)ccc1Nc1nc(NC(C)C)c2c(Cl)c[nH]c2n1 [Compound 89, 1-(4-(4-((5-chloro-4-(isopropylamino)-7H-pyrrolo[2,3-d]pyrimidin-2-yl)amino)-3-methoxyphenyl)-4-oxido-1,4-azaphosphinan-1-yl)ethan-1-one] here?
Answer: < 10 nM

Question: With COc1cc(P2(=O)CCN(C3CC3)CC2)ccc1Nc1nc(NC2CC2)c2c(Cl)c[nH]c2n1 [Compound 90, 4-(4-((5-chloro-4-(cyclopropylamino)-7H-pyrrolo[2,3-d]pyrimidin-2-yl)amino)-3-methoxyphenyl)-1-cyclopropyl-1,4-azaphosphinane 4-oxide] as the compound, how does the IC50 read?
Answer: < 10 nM

Question: With COc1cc(P2(=O)CCN(C(C)=O)CC2)ccc1Nc1nc(NC2CC2)c2c(Cl)c[nH]c2n1 [Compound 91, 1-(4-(4-((5-chloro-4-(cyclopropylamino)-7H-pyrrolo[2,3-d]pyrimidin-2-yl)amino)-3-methoxyphenyl)-4-oxido-1,4-azaphosphinan-1-yl)ethan-1-one] as the compound, how does the IC50 read?
Answer: < 10 nM

Question: With COc1cc(P2(=O)CCN(C(C)=O)CC2)ccc1Nc1nc(NC2CCC2)c2c(Cl)c[nH]c2n1 [Compound 92] as the compound, how does the IC50 read?
Answer: < 10 nM

Question: With COc1cc(P2(=O)CCN(C3CC3)CC2)ccc1Nc1nc(NC2CCCCC2)c2c(Cl)c[nH]c2n1 [Compound 93, 4-(4-((5-chloro-4-(cyclohexylamino)-7H-pyrrolo[2,3-d]pyrimidin-2-yl)amino)-3-methoxyphenyl)-1-cyclopropyl-1,4-azaphosphinane 4-oxide] as the compound, how does the IC50 read?
Answer: 10 to 100 nM

Question: How did the IC50 turn out when COc1cc(S(C)(=O)=O)ccc1Nc1nc(N[C@H]2CCOC2)c2c(Cl)c[nH]c2n1 [Compound 94, (S)-5-chloro-N2-(2-methoxy-4-(methylsulfonyl)phenyl)-N4-(tetrahydrofuran-3-yl)-7H-pyrrolo[2,3-d]pyrimidine-2,4-diamine] was run?
Answer: < 10 nM

Question: O=C(c1ccc(Nc2nc(N[C@H]3CCOC3)c3c(Cl)c[nH]c3n2)c2c1OCCO2)N1CCOCC1 [Compound 95] was tested. Which IC50 did it give?
Answer: < 10 nM

Question: Which IC50 does the source give for COc1cc(P2(=O)CCN(C3CC3)CC2)ccc1Nc1nc(NCC(C)C)c2c(Cl)c[nH]c2n1 [Compound 96, 4-(4-((5-chloro-4-(isobutylamino)-7H-pyrrolo[2,3-d]pyrimidin-2-yl)amino)-3-methoxyphenyl)-1-cyclopropyl-1,4-azaphosphinane 4-oxide] here?
Answer: 10 to 100 nM

Question: Which IC50 does the source give for COc1cc(P2(=O)CCN(C(C)=O)CC2)ccc1Nc1nc(NCC(C)C)c2c(Cl)c[nH]c2n1 [Compound 97, 1-(4-(4-((5-chloro-4-(isobutylamino)-7H-pyrrolo[2,3-d]pyrimidin-2-yl)amino)-3-methoxyphenyl)-4-oxido-1,4-azaphosphinan-1-yl)ethan-1-one] here?
Answer: < 10 nM

Question: CCNc1nc(Nc2ccc(P3(=O)CCN(C(C)=O)CC3)cc2OC)nc2[nH]cc(Cl)c12 [Compound 98] was tested. Which IC50 did it give?
Answer: < 10 nM

Question: With CCCNc1nc(Nc2ccc(P3(=O)CCN(C4CC4)CC3)cc2OC)nc2[nH]cc(Cl)c12 [Compound 99, 4-(4-((5-chloro-4-(propylamino)-7H-pyrrolo[2,3-d]pyrimidin-2-yl)amino)-3-methoxyphenyl)-1-cyclopropyl-1,4-azaphosphinane 4-oxide] as the compound, how does the IC50 read?
Answer: < 10 nM
